Source: PubChem BioAssay (NCI)
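Each compound was tested at five concentrations against cells in 96-well plates for 48 hours. GI50 marks 50% less growth. TGI: total growth inhibition.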 Peptide text beside a SMILES is read from it. * marks the point of attachment. Boc = CC(C)(C)OC(=O)*

What follows are compounds tested on NCI-H322M lung (assay: NCI tumour cell line growth inhibition, 48 h).

Compound	GI50	TGI
CNCCOc1nc2c3cnccc3cc(-c3cc(OC)c(OC)c(OC)c3)c2c2ccncc12	0.0948 µM	0.764 µM
CCOC(=O)CCc1c(C)[nH]c2c(C)c3c([nH]c4ccc(Cl)cc43)c(C)c2c1=O		> 100 µM
CCOC(=O)C(Cc1cn(S(=O)(=O)c2ccc(C)cc2)cn1)P(=O)(OCC)OCC (stereo not given)		> 100 µM
N#CC(C#N)=Cc1ccc(-c2ccc(-c3nc4ccccc4o3)cc2)o1	85.3 µM	> 100 µM
CCOC(=O)C(CC(C)C)NC(=O)C(Cc1ccccc1)NC(=O)CNC(=O)OC(C)(C)C (stereo not drawn) (Boc-Gly-Phe-Leu-OEt; configuration not given here)		57.7 µM
COc1cccc2c1C(=O)c1c(O)c3c(c(O)c1C2=O)C[C@@](O)(/C(C)=N/NC(=O)c1ccc(Cl)c(Cl)c1)C[C@@H]3OC1CC(N)C(O)C(C)O1 (stereo not given in full)		2.29 µM
CC[C@H](C)[C@H](NC(=O)C12CC(NC(C)=O)(C1)C2)C(=O)N(C)[C@H](C[C@@H](OC(C)=O)c1nc(C(=O)N[C@@H](Cc2ccccc2)C[C@H](C)C(=O)OC)cs1)C(C)C	0.888 µM	> 16.7 µM
Nc1cccc2nsnc12		> 100 µM
COc1cc(C2C(C#N)=C(N)Oc3cc4c(cc32)OCO4)cc2c1OCO2 (stereo not given)	2.47 µM	> 100 µM
COC(=O)CNC(=O)Nc1cc(N2C(=O)ON3C2C(C)(C)N(O)C3(C)C)ccc1C (stereo not given)		> 100 µM
Cc1cc(=O)[nH]c(CNC(=O)Cc2ccccc2)n1		> 100 µM
O=c1cc(-c2nc3ccccc3[nH]2)[nH]c2nc(-c3nc4ccccc4[nH]3)cc(-c3ccc(Cl)cc3)c12		> 100 µM
O=C(/C=C/c1ccc(Cl)c(Cl)c1)C1CCC(Cl)CC1 (stereo not given)		> 100 µM
c1ccc2c3nnc(c2c1)SCCSCCCSCCS3		> 100 µM
CC(C)(C)C(=O)[CH-]C(=O)C(F)(F)C(F)(F)C(F)(F)F.CC(C)(C)C(=O)[CH-]C(=O)C(F)(F)C(F)(F)C(F)(F)F.[O-]CC1OC(O)C(O)C(O)C1O.[O-]CC1OC(O)C(O)C(O)C1O.[Ti+4]	> 100 µM	> 100 µM
O=C(NC/C(Cl)=C/Cl)Nc1cccc2c1CCCC2		> 100 µM
NC1=NS(=O)(=O)Nc2nc(-c3cccs3)[nH]c21		> 100 µM
O=c1c2ncn(CCCl)c2n(-c2ccccc2)c(=S)n1-c1ccccc1		> 100 µM
O=C(Nc1ccc(S(=O)(=O)NC2CCCCCC2)cc1)C(c1ccccc1)S(=O)(=O)c1ccc(F)cc1 (stereo not given)	0.327 µM	4.23 µM
C[n+]1c(-c2ccc(/C=N\NC(=O)c3ccc(C(=O)N/N=C/c4ccc(-c5cn6ccsc6[n+]5C)cc4)cc3)cc2)cn2ccsc21		39 µM
CN(C)/C=N/S(=O)(=O)c1nn2c(C=O)c(-c3ccc([N+](=O)[O-])cc3)nc2s1		> 70.4 µM
C=C1CO[C@@H]2C[C@@H]1CC/C(C)=C/CC/C(C)=C/CC[C@@]2(C)O	16.1 µM	40.1 µM
Cc1sc(/N=C2/NC(=O)CS2)nc1-c1nc(/N=C2/NC(=O)CS2)sc1C	30.9 µM	> 50 µM
C=C1CC(C/C=C(\C)CC2CC(=C)C(=O)O2)OC1=O (stereo not given)		> 100 µM

Compound	GI50	TGI
C=C=[CH][Sn]([c]1ccccc1)([c]1ccccc1)[c]1ccccc1	1.7 µM	3.27 µM
COc1cc(C2C(Cl)C(=O)N2NC(=O)Cc2ccccc2)ccc1O (stereo not given)		> 100 µM
N#C/C(=C\c1ccc(O)cc1O)C(N)=O		> 100 µM
O=C(O)Cc1ccc2c(c1O)C(=O)c1c(ccc(CC(=O)O)c1O)C2=O		> 100 µM
CCCCCn1cnc2c1S(=O)(=O)N(C)C(NC(=O)c1ccccc1)=N2		> 100 µM
CCc1oc2ccc(OC)c3c2c1C=CC=C3		> 100 µM
COc1c2ccoc2c(S(=O)(=O)Nc2ccc(Cl)cc2)c2oc(C)cc(=O)c12		> 100 µM
C1=c2ccccc2=C2C(=C(c3ccccc3)C(c3ccccc3)=NN2c2ccccc2)S1		> 100 µM
Nc1ccc(C(=O)NN2C(=O)C(Cl)C2c2cccc([N+](=O)[O-])c2)cc1 (stereo not given)		29.5 µM
NC(=O)C(=CN1CC(=O)NC1=S)C(N)=O		> 100 µM
CN(C)CCOc1nc2ccccc2c2c1-c1ccc(Cl)cc1C2=O	0.538 µM	2.19 µM
N#Cc1ccccc1Nc1ccccc1S		> 100 µM
FC(F)(F)C1(C(F)(F)F)C2CCC3(CC(F)(F)C(F)(F)S3)C1C2 (stereo not given)		> 100 µM
CC(C)Cc1cccc(C(C)C)c1NC(=O)CCC(=O)N/N=C1\C(=N/NC(=O)CCC(=O)Nc2c(C(C)C)cccc2C(C)C)C(c2ccc3c(c2)OCO3)Oc2ccccc21 (stereo not given)		> 100 µM
NC(=O)CCC(NC(=O)C(F)(F)F)C(=O)O (stereo not given)		> 100 µM
CSc1ccc(C2=NN(C(=O)c3ccc(N)cc3)C(c3ccc(F)cc3)C2)cc1 (stereo not given)	14.5 µM	27.9 µM
O=C(CC1(O)C(=O)Nc2c(Cl)ccc(Cl)c21)c1ccc(C2CC2)cc1 (stereo not given)	2.18 µM	19.6 µM
COCC12CC(CC1=O)C1C2ON2c3ccccc3C(=O)C12c1ccccc1 (stereo not given)		> 100 µM
O=C1c2cccc3cc([N+](=O)[O-])cc(c23)C(=O)N1O		99.8 µM
CN1CCN(c2ccc3nc4c(nc3c2C(F)(F)F)C(=O)c2ncccc2C4=O)CC1	1.56 µM	2.96 µM
CCOC(=O)c1c(N2CCOCC2)[nH]c(=O)c(C(c2ccc(Cl)c([N+](=O)[O-])c2)c2c(O)c(C(=O)OCC)c(N3CCOCC3)[nH]c2=O)c1O		> 100 µM
CC(=O)/C=C/C1=C(c2ccsc2)c2ccccc2CC1	27 µM	88.1 µM
ClCC1(CCl)COC1		> 100 µM
C=C1C(=O)OC2/C=C(\C)CC(O)/C=C(/CO)CC(OC(=O)/C(C)=C/C)C12 (stereo not given)		242 µM

Compound	GI50	TGI
Cc1ccccc1NC(=O)C(=O)Cc1cnc2ccccc2n1		> 100 µM
CC[C@@]1(OC(=O)CN)C(=O)OCc2c1cc1n(c2=O)Cc2cc3c(N)c4c(cc3nc2-1)OCO4	0.00746 µM	
OC1C2C=CCC1CCC2 (stereo not given)		> 100 µM
CC1=NN(c2ccccc2)C(=O)C1N=Nc1ccc(Br)c(C)c1 (stereo not given)		> 100 µM
COC1=CC(=O)c2ccccc2C1(C)C1=NC(C)(C)CO1 (stereo not given)		> 100 µM
COC(=O)Nc1nc2ccc(Sc3ccccc3)cc2[nH]1	0.844 µM	38.6 µM
CC(C)(C)OC(=O)N/N=C(/N)c1ccccc1		> 100 µM
C=C(C)[C@@H]1CC[C@]2(C)[C@H](C=CC3=C4C[C@@](C)(CO)CC[C@]4(C)CC[C@]32C)[C@@]1(C)CCCN	1.57 µM	2.91 µM
CCOc1cc(NC(C)=O)ccc1C(=O)NN1C(=O)CSC1c1ccc(O)c(OC)c1 (stereo not given)		> 100 µM
CC[O-].CC[O-].O=C([CH-]C(=O)c1ccccc1)c1ccccc1.O=C([CH-]C(=O)c1ccccc1)c1ccccc1.[Ti+4]	> 100 µM	> 100 µM
OC1(c2ccc3ccccc3c2)c2ccc3ccccc3c2C2=NCCN21 (stereo not given)		> 100 µM
CN(NC(=O)CC(=O)NN(C)C(=S)c1ccc(Cl)cc1)C(=S)c1ccc(Cl)cc1	19.5 µM	> 100 µM
COc1ccc(/C(Cl)=C/c2ccc(Cl)c(Cl)c2)cc1		> 100 µM
C/C(=N\Nc1cccc(Cl)n1)c1ccccn1	0.479 µM	> 100 µM
C[C@@H]1CN2[C@H]3[C@@H]1CC[C@]31CCC(=O)O[C@]1(C)[C@@H]1CC[C@H]3CCC=C3[C@@H]12	> 70 µM	> 70 µM
CC(C)CNc1nc(N=[N+]=[N-])nc(NCC(C)C)n1	> 10 µM	> 10 µM
NC(N)=N/N=C/c1ccc(O)c(C(=O)O)c1		> 100 µM
Brc1ccc(Br)nn1	7.92 µM	20.6 µM
CC12OC3CC(O1)C1(C=O)C4CCC5(C)C(c6ccc(=O)oc6)CCC5(O)C4CCC1(C3)O2 (stereo not given)		2.12 µM
CCOC(=O)c1cn2c([nH]c3ccccc32)c(C#N)c1=O		> 100 µM
COc1ccccc1OC(=O)/C=C/c1ccccc1		> 100 µM
CC[N+](CC)(CC)/C(=N/S(=O)(=O)c1cc(C)c(Cl)cc1S)[N-]S(=O)(=O)c1ccc(Cl)cc1		> 100 µM
CCCC(=O)OCC(O)CO (stereo not given)		> 5000 µM
O=C(Nc1cc(Cl)c(Cl)cc1Cl)C(=O)C(C(=O)c1ccc2ccccc2c1)C1OC(=O)c2ccccc21 (stereo not given)		44.4 µM

Compound	GI50	TGI
CCN1C(=O)N(CC)C2C1NN=c1s/c(=C\c3ccccc3)c(=O)n12 (stereo not given)	0.72 µM	> 100 µM
O=C(O)c1cc(N(Cc2ccccc2O)Cc2cc(O)ccc2O)ccc1O		> 100 µM
Cc1nc(N)sc1C(=O)/C=C/c1ccc([N+](=O)[O-])cc1		> 100 µM
COc1cc2c3c(c1O)C1(C=CC(=O)C=C1)CC3N(C)CC2 (stereo not given)		21.8 µM
Cc1cc2c(=O)[nH]nc(N)c2c(N)n1		> 100 µM
COc1ccc(-n2sc(=O)n(Cc3ccc(COC(=O)C(C)c4ccc(CC(C)C)cc4)cc3)c2=O)cc1 (stereo not given)	7.8 µM	14.5 µM
CC1(C)C(=O)C2(C#N)CCC1C2 (stereo not given)		> 100 µM
C[N+]1=c2c3cccc4cccc(c(=O)n2CCC1)c43		70.1 µM
COc1nc2c(c(=O)n1C)NC(C(O)C(O)CO)C=N2 (stereo not given)		> 10 µM
COC(=O)C1=Cc2c(OC)cc(OC)c(OC)c2[C@H](c2cc(OC)c(OC)cc2OC)C1C(=O)OC (stereo not given in full)		> 100 µM
O=c1[nH]c2c(O)cccc2c2cc3c(c(O)c12)OCO3		> 100 µM
C[C@H](O)C(=O)SC[C@H](NC(=O)CC[C@@H](N)C(=O)O)C(=O)NCC(=O)O		> 100 µM
O=[N+]([O-])c1cc(/C=N/NS(=O)(=O)c2ccc(F)cc2)c(O)c([N+](=O)[O-])c1		> 100 µM
COc1ccc(-n2cc(-c3ccc(OC)c(OC)c3)nc2SCc2ccccc2)cc1Cl	29.5 µM	> 100 µM
N#CSCC(=O)c1ccc(Cl)cc1	2.93 µM	> 34.6 µM
CS(=O)(=O)OCc1c(O)c2c(c(O)c1COS(C)(=O)=O)C(=O)C=CC2=O		> 100 µM
CCOC(=O)CC(N1CC1)N1CC1		> 10 µM
CCOC(=O)N1CCC(=O)C[C@@H]1C/C=C/P1(=O)O[C@H](c2ccccc2)C(C)N1C(C)C (stereo not given in full)		> 100 µM
C=C1C(=O)OC2CC3(C)OC3C3OC3C3=CC(OC3=O)C12 (stereo not given)	24.5 µM	66.4 µM
CCS/C(Nc1ccccc1)=C(\C#N)C(=O)N/N=C/c1ccc(Cl)cc1Cl	6.87 µM	> 100 µM
Cc1cc2c(C(C)C)c(O)c(O)c(C=O)c2c(O)c1-c1c(C)cc2c(C(C)C)c(O)c(O)c(C=O)c2c1O (tested in a mixture with another compound)	0.998 µM	10.3 µM
CC1CC(NN(C)C)C2(C(N)=O)C(N)=NC(=O)C12C#N (stereo not given)		> 100 µM
CN(CC#N)C(=O)Cc1ccc([N+](=O)[O-])cc1		> 10 µM
COc1ccc(Nc2nc3ccccc3nc2C(=O)O)cc1		> 100 µM
